# Assay results published in article PMC6919601, “Identification of Plasmodium dipeptidyl aminopeptidase allosteric inhibitors by high throughput screening” (PLoS ONE, 2019).
# Screen size: about 110,000 compounds; about 230 (0.21%) showed an effect of 50% or more. This is one part of the list.
# Target: DPAP1 (Plasmodium falciparum, UniProt Q8IIJ9)
# Experiment: primary screen, percent inhibition; read by cleavage of a fluorogenic dipeptide substrate; higher = more effect of the substance
# Set-up: species or system P. falciparum D10 trophozoite lysates; single well
# 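Also: 30 min substrate incubation versus DMSO and 10 µM JCP410 controls.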
# Chain of DPAP1 (Q8IIJ9 whole entry, looked up): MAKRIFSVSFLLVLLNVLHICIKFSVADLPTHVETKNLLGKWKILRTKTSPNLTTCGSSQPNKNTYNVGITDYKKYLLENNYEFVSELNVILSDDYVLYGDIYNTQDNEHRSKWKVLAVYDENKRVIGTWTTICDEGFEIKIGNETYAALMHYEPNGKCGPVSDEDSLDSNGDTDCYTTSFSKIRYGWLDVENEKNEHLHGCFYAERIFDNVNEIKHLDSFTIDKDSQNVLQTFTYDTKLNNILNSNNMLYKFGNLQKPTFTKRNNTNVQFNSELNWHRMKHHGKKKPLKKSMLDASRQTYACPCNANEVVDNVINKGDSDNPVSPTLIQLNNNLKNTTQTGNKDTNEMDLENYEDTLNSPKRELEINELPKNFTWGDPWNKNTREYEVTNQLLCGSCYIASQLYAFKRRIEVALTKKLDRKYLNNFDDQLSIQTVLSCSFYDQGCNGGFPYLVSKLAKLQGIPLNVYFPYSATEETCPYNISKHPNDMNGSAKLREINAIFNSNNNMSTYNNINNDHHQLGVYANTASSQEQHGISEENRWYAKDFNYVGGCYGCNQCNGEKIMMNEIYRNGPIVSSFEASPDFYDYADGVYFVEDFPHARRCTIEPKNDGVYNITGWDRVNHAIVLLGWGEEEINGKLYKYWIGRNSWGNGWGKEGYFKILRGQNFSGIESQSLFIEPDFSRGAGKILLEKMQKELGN
row,SMILES,% Inhibition @ 10 uM [%]
1,OC1CCN(Cc2cccc(Cl)c2)CC1,-1.93
2,CCCCCCCCc1ccc(-c2ccc(C(N)=O)cc2)cc1,0.912
3,COc1ccc(NC(=O)C(C(=O)Nc2ccc(OC)cc2)C23CC4CC(CC(C4)C2)C3)cc1,-6.82
4,CC1CCCN(S(=O)(=O)c2ccc(-c3ccc(O)nn3)o2)C1 (stereo not shown),-3.84
5,CC(=O)Nc1cccc(C2=Nc3ccccc3SC(c3cccs3)C2)c1 (stereo not shown),0.389
6,Cc1ccc(C#N)c(SCC(=O)O)n1,-0.771
7,CCCCNC(=O)CSc1nc2nnc(C)c-2c(N)n1-c1cc(Cl)ccc1C,4.35
8,Cc1cccc(N(CC(=O)N2CCCCCC2)S(=O)(=O)c2ccccc2)c1C,4.57
9,Cc1c2cnn(CC(=O)N3CCN(C)CC3)c(=O)c2c(C)n1Cc1ccccc1Cl,2.84
10,Brc1ccccc1N1CC(c2ccccc2)C(c2cccs2)=N1 (stereo not shown),4.55
11,Nc1c(Cl)cc(N2C(=O)C3CCCCC3C2=O)cc1Cl (stereo not shown),-1.57
12,CCCCOc1ccc(-c2ncc(C(=O)O)c(C)n2)cc1,7.47
13,COc1ccc(-c2ncnn2-c2ccc(Cl)cc2)cc1OC,-1.96
14,O=C(Nc1ccc2c(c1)OCCO2)c1cc(Cl)ccc1Cl,-3.69
15,Cc1cc(C)c2nc(N3CCC(C(=O)N4CC(C)CC(C)C4)CC3)sc2c1 (stereo not shown),-3.35
16,CCc1cc(C(=O)c2ccccc2)c(N)s1,-0.759
17,O=C(O)c1cc(N2C(=O)c3ccc([N+](=O)[O-])cc3C2=O)ccc1O,-2.63
18,CN1C(=O)/C(=C/c2cccs2)S/C1=N/c1cccc(C(=O)O)c1,14.4
19,COc1ccc(CON=C(N)N)cc1,0.193
20,COCc1cc(C)n(CC(=O)N2CCCC2)c(=O)c1C#N,1.76
21,Cc1ccccc1OCc1nc2c3cnn(C)c3ncn2n1,-1.11
22,CSc1ccccc1NC(=O)c1cccc(COCC(F)(F)C(F)F)c1,-7.02

row,SMILES,% Inhibition @ 10 uM [%]
1,CCc1nnc(NC(=O)Cn2ncc3c2-c2ccccc2OC3)s1,-6.3
2,COc1ccc(-c2csc(/C(C#N)=C/c3cccc(Cl)c3)n2)cc1,0.912
3,COc1ccc(N2C(=O)c3ccccc3NC2c2ccccc2F)cc1 (stereo not shown),-4.39
4,O=c1c2c([nH]c(=S)n1Cc1ccccc1)-c1ccccc1CC2C1CCCCC1 (stereo not shown),3.01
5,COc1ccccc1CNC(=O)c1cc(O)nc2ccc(S(=O)(=O)N3CCCCC3C)cc12 (stereo not shown),2.05
6,COc1ccc(/C=C(/C#N)c2nc(-c3ccc(C)cc3)cs2)cc1,1.76
7,CCCCOC(=O)N1C2C=CC(C2)C1(C(F)(F)F)C(F)(F)F (stereo not shown),-4.35
8,CCCc1c(C)nc2ccccc2c1S,-0.941
9,N#C/C(=C\c1cccs1)c1nc(-c2ccc(Br)cc2)cs1,-2.44
10,COCCNc1nc2ccccc2n2cnnc12,-2.42
11,COc1ccc(/C(O)=C/C=N/c2ccc(Cl)cc2)cc1OC,0.851
12,N#C/C(=C\Nc1cnc2ccccc2c1)C(=O)NC(=O)Cc1ccccc1,-8.71
13,Cc1nnc(N2C(=O)C(O)=C(C(=O)c3ccc(Cl)cc3)C2c2ccc(C(C)(C)C)cc2)s1 (stereo not shown),3.8
14,O=C(NCc1cccs1)c1cc(-c2ccccc2)on1,-3.56
15,CCc1nn(CC(=O)NCCC2=CCCCC2)c(=O)c2cc3sccc3n12,-5.19
16,CCCCCN(C(=O)NC(=O)NC1=C(C(=O)OC)SCC1)S(=O)(=O)c1ccccc1,-4.27
17,N#CCNC(=O)C(Cc1ccccc1)NC(=O)c1ccc(-c2csc(NC(=N)N)n2)cc1 (stereo not shown),-16.9
18,c1ccc2c(c1)nnn2CN1CCOCC1,-0.615
19,CC(NC(=O)C(=O)NCc1ccncc1)c1ccccc1 (stereo not shown),-5.26
20,CCCCOc1ccc(C(O)(CCN2CCOCC2)c2ccccc2)cc1 (stereo not shown),2.16
21,CCOC(=O)c1ccc(NC(=O)/C=C/c2ccc(C(C)C)cc2)cc1,0.317
22,O=C(Nc1nc2c(s1)CCc1ccccc1-2)c1cccnc1,2.22

row,SMILES,% Inhibition @ 10 uM [%]
1,CCCC1CCc2c(sc(NC(=O)C3CCCO3)c2C(N)=O)C1 (stereo not shown),1.57
2,CCOC(=O)c1c(C)[nH]c(C)c1S(=O)(=O)N(C)CC(=O)Nc1nc2ccc(OC)cc2s1,-7.09
3,COc1ccc(-c2nnc3n(Cc4ccc(C)cc4)c(=O)c4ccccc4n23)c(O)c1,4.86
4,O=C(O)CSc1nc(SCC(=O)O)c2ccccc2n1,2.09
5,CC1(C)CN=C(NCc2cccnc2)S1,3.36
6,COc1ccccc1OCC(=O)N(Cc1sccc1C)C1CCS(=O)(=O)C1 (stereo not shown),1.99
7,Cc1ccc2onc(CNC(=O)NCCCN(Cc3ccco3)C3CCCC3)c2c1,-1.11
8,N#Cc1c(N)nc2c(c1-c1cccc(Br)c1)CCCC2,4.93
9,CCOC(=O)c1c(NC(=O)CC(NC(=O)C(F)(F)F)c2ccccc2)sc2c1CCC2 (stereo not shown),7.5
10,Fc1ccc(CN2CCN(c3ccccc3F)CC2)c(F)c1,-1.77
11,O=C(Nc1ccc(S(=O)(=O)Nc2ncccn2)cc1)c1ccc(Br)o1,-3.45
12,Cn1c(=O)n(CCc2ccccc2)c(=O)c2c1nc1n2CCN1Cc1ccccc1,3.57
13,Cc1nn(C(C)C(=O)NCCCN2CCc3ccccc3C2)c(=O)c2nn(-c3ccccc3)c(C)c12 (stereo not shown),2.48
14,COc1ccc(CCNC(=O)C2CCCN(C(=O)c3cc4sccc4n3C)C2)cc1OC (stereo not shown),-7.48
15,O=C(NCCCN1CCC(Cc2ccccc2)CC1)C1CCCN(S(=O)(=O)N2CCOCC2)C1 (stereo not shown),-3.16
16,CC1CN(C(=O)c2ccc(COc3cccc4ccccc34)cc2)CC(C)O1 (stereo not shown),-5.19
17,CCN(CC)C(C)C(=O)NCC1(c2ccccc2)CCOCC1 (stereo not shown),-10.5
18,COc1ccc(CCNC(=O)CSc2nnc(CNC(=O)c3cccs3)o2)cc1OC,-3.62
19,COc1cc(OC)cc(C(=O)Nc2sc3c(c2C(N)=O)CCCCC3)c1,2.01
20,COc1cc(-c2nc3ccccn3c2/N=C/c2cc(OC)c(O)cc2Cl)ccc1O,6.7
